Experimental data reported in patent US11178870B2 (priority 2017, dated 2021).

Tests used:
Format in all cases: in vivo
Plasmopara viticola = assay: Test Example G: Downy mildew on vine; conditions: for control value, Test G (downy mildew on vine): 250 ppm sprayed (2.5 ml/pot) before inoculation, assessed 7 to 10 days after inoculation; for Test G control value: Downy mildew on vine, 250 ppm sprayed, 7 to 10 days after inoculation; for Test G control value / Test G control value (downy mildew on vine): 2.5 ml/pot; for Test G control value (downy mildew on vine): 250 ppm spray, investigated 7 to 10 days after inoculation
Alternaia brassicicola = assay: Test Example C: Alternaria sooty spot on cabbage; conditions: for control value, Test C (Alternaria sooty spot on cabbage): Table 7, Test C; for Test C control value: Alternaria sooty spot on cabbage; for Test C control value (Alternaria sooty spot on cabbage): class of control value, Table 7
Puccinia recondita = assay: Test Example E: Brown rust on wheat; conditions: for control value, Test E (brown rust on wheat): Table 7, Test E; for Test E control value: Brown rust on wheat; for Test E control value (brown rust on wheat): class of control value, Table 7
Botrytis cinerea = assay: Test Example B: Gray mold on tomato; conditions: for control value, Test B (gray mold on tomato): Table 7, Test B; for Test B control value: Gray mold on tomato; for Test B control value (gray mold on tomato): class of control value, Table 7
[1] = test system: Blumeria graminis f. sp. hordei; assay: Test Example D: Powdery mildew on barley; conditions: for control value, Test D (powdery mildew on barley): Table 7, Test D; for Test D control value: Powdery mildew on barley; for Test D control value (powdery mildew on barley): class of control value, Table 7

O=c1c(Br)cc(-n2cc(F)cn2)c(-c2ccc(F)cc2F)n1CC(F)F [Compound 286]
control value, Test G (downy mildew on vine) (Plasmopara viticola): L (L shows the control value of 50% or less)
control value, Test C (Alternaria sooty spot on cabbage) (Alternaia brassicicola): H (H shows the control value more than 50%)
control value, Test E (brown rust on wheat) (Puccinia recondita): H (H shows the control value more than 50%)
control value, Test B (gray mold on tomato) (Botrytis cinerea): H (H shows the control value more than 50%)
control value, Test D (powdery mildew on barley) [1]: H (H shows the control value more than 50%)

CCn1c(-c2c(F)cc(F)cc2F)c(-n2cc(C=O)cn2)cc(Cl)c1=O [Compound 123]
Test G control value (Plasmopara viticola): L (L shows the control value of 50% or less)
Test C control value (Alternaia brassicicola): H (H shows the control value more than 50%)
Test E control value (Puccinia recondita): L (L shows the control value of 50% or less)
Test B control value (Botrytis cinerea): H (H shows the control value more than 50%)
Test D control value [1]: L (L shows the control value of 50% or less)

Cc1cnn(-c2ccc(=O)n(C)c2-c2ccc(F)cc2F)c1 [Compound 406]
Test G control value (downy mildew on vine) (Plasmopara viticola): L (L shows the control value of 50% or less)
Test C control value (Alternaria sooty spot on cabbage) (Alternaia brassicicola): H (H shows the control value more than 50%)
Test E control value (brown rust on wheat) (Puccinia recondita): L (L shows the control value of 50% or less)
Test B control value (gray mold on tomato) (Botrytis cinerea): L (L shows the control value of 50% or less)
Test D control value (powdery mildew on barley) [1]: H (H shows the control value more than 50%)

O=c1ccc(-c2sc(Br)cc2Cl)c(-c2c(F)cccc2F)n1CC(F)F [Compound 434]
Test G control value (downy mildew on vine) (Plasmopara viticola): L (L shows the control value of 50% or less)
Test C control value (Alternaria sooty spot on cabbage) (Alternaia brassicicola): L (L shows the control value of 50% or less)
Test E control value (brown rust on wheat) (Puccinia recondita): L (L shows the control value of 50% or less)
Test B control value (gray mold on tomato) (Botrytis cinerea): L (L shows the control value of 50% or less)
Test D control value (powdery mildew on barley) [1]: L (L shows the control value of 50% or less)

CCn1c(-c2ccc(F)cc2Br)c(-n2cc(F)cn2)ccc1=O [Compound 326]
control value, Test G (downy mildew on vine) (Plasmopara viticola): L (L shows the control value of 50% or less)
control value, Test C (Alternaria sooty spot on cabbage) (Alternaia brassicicola): H (H shows the control value more than 50%)
control value, Test E (brown rust on wheat) (Puccinia recondita): H (H shows the control value more than 50%)
control value, Test B (gray mold on tomato) (Botrytis cinerea): H (H shows the control value more than 50%)
control value, Test D (powdery mildew on barley) [1]: H (H shows the control value more than 50%)

O=c1c(Br)cc(-n2cnc(Cl)c2Cl)c(-c2ccccc2Cl)n1CC(F)F [Compound 236]
control value, Test G (downy mildew on vine) (Plasmopara viticola): H (H shows the control value more than 50%)
control value, Test C (Alternaria sooty spot on cabbage) (Alternaia brassicicola): H (H shows the control value more than 50%)
control value, Test E (brown rust on wheat) (Puccinia recondita): H (H shows the control value more than 50%)
control value, Test B (gray mold on tomato) (Botrytis cinerea): H (H shows the control value more than 50%)
control value, Test D (powdery mildew on barley) [1]: H (H shows the control value more than 50%)

CCn1c(-c2c(F)cc(OC)cc2F)c(-n2cnc(Cl)n2)cc(Cl)c1=O [Compound 267]
control value, Test G (downy mildew on vine) (Plasmopara viticola): L (L shows the control value of 50% or less)
control value, Test C (Alternaria sooty spot on cabbage) (Alternaia brassicicola): H (H shows the control value more than 50%)
control value, Test E (brown rust on wheat) (Puccinia recondita): H (H shows the control value more than 50%)
control value, Test B (gray mold on tomato) (Botrytis cinerea): H (H shows the control value more than 50%)
control value, Test D (powdery mildew on barley) [1]: H (H shows the control value more than 50%)

CCn1c(-c2c(F)cccc2F)c(-c2cnc(I)o2)cc(Cl)c1=O [Compound 92]
Test G control value (Plasmopara viticola): L (L shows the control value of 50% or less)
Test C control value (Alternaia brassicicola): L (L shows the control value of 50% or less)
Test E control value (Puccinia recondita): L (L shows the control value of 50% or less)
Test B control value (Botrytis cinerea): H (H shows the control value more than 50%)
Test D control value [1]: L (L shows the control value of 50% or less)

CCn1c(-c2ccc(F)cc2Br)c(-n2cc(Cl)cn2)cc(Br)c1=O [Compound 166]
Test G control value (Plasmopara viticola): H (H shows the control value more than 50%)
Test C control value (Alternaia brassicicola): H (H shows the control value more than 50%)
Test E control value (Puccinia recondita): H (H shows the control value more than 50%)
Test B control value (Botrytis cinerea): H (H shows the control value more than 50%)
Test D control value [1]: L (L shows the control value of 50% or less)

CCn1c(-c2ccc(OC)cc2Cl)c(-c2cnco2)cc(Cl)c1=O [Compound 33]
Test G control value (Plasmopara viticola): L (L shows the control value of 50% or less)
Test C control value (Alternaia brassicicola): H (H shows the control value more than 50%)
Test E control value (Puccinia recondita): L (L shows the control value of 50% or less)
Test B control value (Botrytis cinerea): L (L shows the control value of 50% or less)
Test D control value [1]: L (L shows the control value of 50% or less)

Cc1cnn(-c2ccc(=O)n(CC(F)F)c2-c2ccccc2Cl)c1 [Compound 227]
control value, Test G (downy mildew on vine) (Plasmopara viticola): L (L shows the control value of 50% or less)
control value, Test C (Alternaria sooty spot on cabbage) (Alternaia brassicicola): H (H shows the control value more than 50%)
control value, Test E (brown rust on wheat) (Puccinia recondita): H (H shows the control value more than 50%)
control value, Test B (gray mold on tomato) (Botrytis cinerea): H (H shows the control value more than 50%)
control value, Test D (powdery mildew on barley) [1]: H (H shows the control value more than 50%)

Cn1c(-c2c(F)cccc2F)c(-c2ccsc2)ccc1=O [Compound 15]
Test G control value (Plasmopara viticola): L (L shows the control value of 50% or less)
Test C control value (Alternaia brassicicola): L (L shows the control value of 50% or less)
Test E control value (Puccinia recondita): H (H shows the control value more than 50%)
Test B control value (Botrytis cinerea): H (H shows the control value more than 50%)
Test D control value [1]: H (H shows the control value more than 50%)

CCOc1cc(F)c(-c2c(-n3cc(F)cn3)ccc(=O)n2CC)c(F)c1 [Compound 311]
control value, Test G (downy mildew on vine) (Plasmopara viticola): L (L shows the control value of 50% or less)
control value, Test C (Alternaria sooty spot on cabbage) (Alternaia brassicicola): H (H shows the control value more than 50%)
control value, Test E (brown rust on wheat) (Puccinia recondita): H (H shows the control value more than 50%)
control value, Test B (gray mold on tomato) (Botrytis cinerea): H (H shows the control value more than 50%)
control value, Test D (powdery mildew on barley) [1]: H (H shows the control value more than 50%)

CCn1c(-c2c(F)cccc2F)c(-c2sccc2Cl)cc(Br)c1=O [Compound 397]
Test G control value (downy mildew on vine) (Plasmopara viticola): L (L shows the control value of 50% or less)
Test C control value (Alternaria sooty spot on cabbage) (Alternaia brassicicola): H (H shows the control value more than 50%)
Test E control value (brown rust on wheat) (Puccinia recondita): H (H shows the control value more than 50%)
Test B control value (gray mold on tomato) (Botrytis cinerea): H (H shows the control value more than 50%)
Test D control value (powdery mildew on barley) [1]: H (H shows the control value more than 50%)

CCn1c(-c2c(F)cccc2F)c(-c2sc(Br)cc2C)cc(Cl)c1=O [Compound 387]
Test G control value (downy mildew on vine) (Plasmopara viticola): L (L shows the control value of 50% or less)
Test C control value (Alternaria sooty spot on cabbage) (Alternaia brassicicola): H (H shows the control value more than 50%)
Test E control value (brown rust on wheat) (Puccinia recondita): H (H shows the control value more than 50%)
Test B control value (gray mold on tomato) (Botrytis cinerea): H (H shows the control value more than 50%)
Test D control value (powdery mildew on barley) [1]: H (H shows the control value more than 50%)

CCc1ccccc1-c1c(-n2cc(C)cn2)cc(Br)c(=O)n1CC [Compound 321]
control value, Test G (downy mildew on vine) (Plasmopara viticola): L (L shows the control value of 50% or less)
control value, Test C (Alternaria sooty spot on cabbage) (Alternaia brassicicola): L (L shows the control value of 50% or less)
control value, Test E (brown rust on wheat) (Puccinia recondita): L (L shows the control value of 50% or less)
control value, Test B (gray mold on tomato) (Botrytis cinerea): L (L shows the control value of 50% or less)
control value, Test D (powdery mildew on barley) [1]: L (L shows the control value of 50% or less)

CCn1c(-c2c(F)cc(F)cc2F)c(-n2cc([N+](=O)[O-])cn2)cc(Cl)c1=O [Compound 161]
Test G control value (Plasmopara viticola): L (L shows the control value of 50% or less)
Test C control value (Alternaia brassicicola): H (H shows the control value more than 50%)
Test E control value (Puccinia recondita): H (H shows the control value more than 50%)
Test B control value (Botrytis cinerea): H (H shows the control value more than 50%)
Test D control value [1]: L (L shows the control value of 50% or less)

Cn1c(-c2c(F)cccc2F)c(-c2cccs2)ccc1=O [Compound 14]
Test G control value (Plasmopara viticola): H (H shows the control value more than 50%)
Test C control value (Alternaia brassicicola): L (L shows the control value of 50% or less)
Test E control value (Puccinia recondita): H (H shows the control value more than 50%)
Test B control value (Botrytis cinerea): H (H shows the control value more than 50%)
Test D control value [1]: H (H shows the control value more than 50%)

CCn1c(-c2c(F)cc(F)cc2F)c(C2OCCO2)cc(Cl)c1=O [Compound 9]
Test G control value (Plasmopara viticola): L (L shows the control value of 50% or less)
Test C control value (Alternaia brassicicola): H (H shows the control value more than 50%)
Test E control value (Puccinia recondita): L (L shows the control value of 50% or less)
Test B control value (Botrytis cinerea): H (H shows the control value more than 50%)
Test D control value [1]: H (H shows the control value more than 50%)

Cc1cnn(-c2ccc(=O)n(CC(F)F)c2-c2ccc(F)cc2F)c1 [Compound 254]
control value, Test G (downy mildew on vine) (Plasmopara viticola): H (H shows the control value more than 50%)
control value, Test C (Alternaria sooty spot on cabbage) (Alternaia brassicicola): H (H shows the control value more than 50%)
control value, Test E (brown rust on wheat) (Puccinia recondita): H (H shows the control value more than 50%)
control value, Test B (gray mold on tomato) (Botrytis cinerea): H (H shows the control value more than 50%)
control value, Test D (powdery mildew on barley) [1]: H (H shows the control value more than 50%)

CCn1c(-c2c(F)cccc2F)c(-c2ocnc2Cl)cc(Cl)c1=O [Compound 50]
Test G control value (Plasmopara viticola): H (H shows the control value more than 50%)
Test C control value (Alternaia brassicicola): H (H shows the control value more than 50%)
Test E control value (Puccinia recondita): H (H shows the control value more than 50%)
Test B control value (Botrytis cinerea): H (H shows the control value more than 50%)
Test D control value [1]: H (H shows the control value more than 50%)
